Results taken from the supplement of paper PMC8728848.
The other results are listed elsewhere or left out.

Tests used:
Test in all cases: glycan array binding signal (z-score within array); higher = stronger binding
Conditions in all cases: glycan notation: IUPAC condensed, linker removed
Fuc(a1-2)Gal = target: Fuc(a1-2)Gal
How it was run: (§1)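 The binding signal is a Z-score computed within each array and averaged over linkers. Arrays of the same protein sequence at different concentrations or buffers were also averaged together. Data originate from 3228 arrays in the Consortium for Functional Glycomics database, kept only where the protein sequence was available.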

Fuc(a1-2)Gal(b1-3)GalNAc = target: Fuc(a1-2)Gal(b1-3)GalNAc
How it was run: as §1

[1] = target: Fuc(a1-2)Gal(b1-3)GalNAc(a1-3)[Fuc(a1-2)]Gal(b1-4)Glc
How it was run: as §1

[2] = target: Fuc(a1-2)Gal(b1-3)GalNAc(a1-3)[Fuc(a1-2)]Gal(b1-4)GlcNAc
How it was run: as §1

[3] = target: Fuc(a1-2)Gal(b1-3)GalNAc(b1-3)Gal
How it was run: as §1

[4] = target: Fuc(a1-2)Gal(b1-3)GalNAc(b1-3)Gal(a1-4)Gal(b1-4)Glc
How it was run: as §1

[5] = target: Fuc(a1-2)Gal(b1-3)GalNAc(b1-4)[Neu5Ac(a2-3)]Gal(b1-4)Glc
How it was run: as §1

Fuc(a1-2)Gal(b1-3)GlcNAc = target: Fuc(a1-2)Gal(b1-3)GlcNAc
How it was run: as §1

[6] = target: Fuc(a1-2)Gal(b1-3)GlcNAc(b1-2)Man(a1-3)[Fuc(a1-2)Gal(b1-3)GlcNAc(b1-2)Man(a1-6)]Man(b1-4)GlcNAc(b1-4)GlcNAc
How it was run: as §1

[7] = target: Fuc(a1-2)Gal(b1-3)GlcNAc(b1-3)Gal(b1-4)Glc
How it was run: as §1

[8] = target: Fuc(a1-2)Gal(b1-3)GlcNAc(b1-3)[Fuc(a1-3)[Gal(b1-4)]GlcNAc(b1-6)]Gal(b1-4)Glc
How it was run: as §1

[9] = target: Fuc(a1-2)Gal(b1-3)[Fuc(a1-4)]GlcNAc
How it was run: as §1

[10] = target: Fuc(a1-2)Gal(b1-3)[Fuc(a1-4)]GlcNAc(b1-2)Man(a1-3)[Fuc(a1-2)Gal(b1-3)[Fuc(a1-4)]GlcNAc(b1-2)Man(a1-6)]Man(b1-4)GlcNAc(b1-4)GlcNAc
How it was run: as §1

[11] = target: Fuc(a1-2)Gal(b1-3)[Fuc(a1-4)]GlcNAc(b1-3)[Fuc(a1-3)[Gal(b1-4)]GlcNAc(b1-6)]Gal(b1-4)Glc
How it was run: as §1

[12] = target: Fuc(a1-2)Gal(b1-3)[Fuc(a1-4)]GlcNAc(b1-3)[Gal(b1-4)GlcNAc(b1-6)]Gal(b1-4)Glc
How it was run: as §1

Fuc(a1-2)Gal(b1-4)Glc = target: Fuc(a1-2)Gal(b1-4)Glc
How it was run: as §1

Fuc(a1-2)Gal(b1-4)Glc6S = target: Fuc(a1-2)Gal(b1-4)Glc6S
How it was run: as §1

Fuc(a1-2)Gal(b1-4)GlcNAc = target: Fuc(a1-2)Gal(b1-4)GlcNAc
How it was run: as §1

[13] = target: Fuc(a1-2)Gal(b1-4)GlcNAc(b1-2)Man(a1-3)[Fuc(a1-2)Gal(b1-4)GlcNAc(b1-2)Man(a1-6)]Man(b1-4)GlcNAc(b1-4)GlcNAc
How it was run: as §1

[14] = target: Fuc(a1-2)Gal(b1-4)GlcNAc(b1-3)Gal(b1-4)GlcNAc
How it was run: as §1

[15] = target: Fuc(a1-2)Gal(b1-4)GlcNAc(b1-3)Gal(b1-4)GlcNAc(b1-3)Gal(b1-4)GlcNAc
How it was run: as §1

[16] = target: Fuc(a1-2)Gal(b1-4)GlcNAc(b1-3)GalNAc
How it was run: as §1

[17] = target: Fuc(a1-2)Gal(b1-4)GlcNAc6S
How it was run: as §1

[18] = target: Fuc(a1-2)Gal(b1-4)[Fuc(a1-3)]GlcNAc
How it was run: as §1

[19] = target: Fuc(a1-2)Gal(b1-4)[Fuc(a1-3)]GlcNAc(b1-2)Man(a1-3)[Fuc(a1-2)Gal(b1-4)[Fuc(a1-3)]GlcNAc(b1-2)Man(a1-6)]Man(b1-4)GlcNAc(b1-4)GlcNAc
How it was run: as §1

[20] = target: Fuc(a1-2)Gal(b1-4)[Fuc(a1-3)]GlcNAc(b1-3)Gal(b1-4)[Fuc(a1-3)]GlcNAc
How it was run: as §1

[21] = target: Fuc(a1-2)Gal(b1-4)[Fuc(a1-3)]GlcNAc(b1-3)Gal(b1-4)[Fuc(a1-3)]GlcNAc(b1-3)Gal(b1-4)[Fuc(a1-3)]GlcNAc
How it was run: as §1

Fuc(a1-2)Gal6S(b1-4)Glc = target: Fuc(a1-2)Gal6S(b1-4)Glc
How it was run: as §1

[22] = target: Fuc(a1-2)Gal6S(b1-4)Glc6S
How it was run: as §1

[23] = target: Fuc(a1-2)Gal6S(b1-4)GlcNAc
How it was run: as §1

Fuc(a1-2)[Gal(a1-3)]Gal = target: Fuc(a1-2)[Gal(a1-3)]Gal
How it was run: as §1

[24] = target: Fuc(a1-2)[Gal(a1-3)]Gal(b1-3)GlcNAc
How it was run: as §1

[25] = target: Fuc(a1-2)[Gal(a1-3)]Gal(b1-3)GlcNAc(b1-2)Man(a1-3)[Fuc(a1-2)[Gal(a1-3)]Gal(b1-3)GlcNAc(b1-2)Man(a1-6)]Man(b1-4)GlcNAc(b1-4)GlcNAc
How it was run: as §1

[26] = target: Fuc(a1-2)[Gal(a1-3)]Gal(b1-4)Glc
How it was run: as §1

[27] = target: Fuc(a1-2)[Gal(a1-3)]Gal(b1-4)GlcNAc
How it was run: as §1

[28] = target: Fuc(a1-2)[Gal(a1-3)]Gal(b1-4)GlcNAc(b1-2)Man(a1-3)[Fuc(a1-2)[Gal(a1-3)]Gal(b1-4)GlcNAc(b1-2)Man(a1-6)]Man(b1-4)GlcNAc(b1-4)GlcNAc
How it was run: as §1

[29] = target: Fuc(a1-2)[Gal(a1-3)]Gal(b1-4)[Fuc(a1-3)]GlcNAc
How it was run: as §1

[30] = target: Fuc(a1-2)[Gal(a1-4)]Gal(b1-4)GlcNAc
How it was run: as §1

[31] = target: Fuc(a1-2)[GalNAc(a1-3)]Gal
How it was run: as §1

[32] = target: Fuc(a1-2)[GalNAc(a1-3)]Gal(b1-3)GalNAc(a1-3)[Fuc(a1-2)]Gal(b1-4)GlcNAc
How it was run: as §1

[33] = target: Fuc(a1-2)[GalNAc(a1-3)]Gal(b1-3)GlcNAc
How it was run: as §1

[34] = target: Fuc(a1-2)[GalNAc(a1-3)]Gal(b1-3)GlcNAc(b1-2)Man(a1-3)[Fuc(a1-2)[GalNAc(a1-3)]Gal(b1-3)GlcNAc(b1-2)Man(a1-6)]Man(b1-4)GlcNAc(b1-4)GlcNAc
How it was run: as §1

[35] = target: Fuc(a1-2)[GalNAc(a1-3)]Gal(b1-4)Glc
How it was run: as §1

[36] = target: Fuc(a1-2)[GalNAc(a1-3)]Gal(b1-4)GlcNAc
How it was run: as §1

[37] = target: Fuc(a1-2)[GalNAc(a1-3)]Gal(b1-4)GlcNAc(b1-2)Man(a1-3)[Fuc(a1-2)[GalNAc(a1-3)]Gal(b1-4)GlcNAc(b1-2)Man(a1-6)]Man(b1-4)GlcNAc(b1-4)GlcNAc
How it was run: as §1

[38] = target: Fuc(a1-2)[GalNAc(a1-3)]Gal(b1-4)GlcNAc(b1-3)Gal(b1-4)GlcNAc
How it was run: as §1

[39] = target: Fuc(a1-2)[GalNAc(a1-3)]Gal(b1-4)GlcNAc(b1-3)Gal(b1-4)GlcNAc(b1-3)Gal(b1-4)GlcNAc
How it was run: as §1

[40] = target: Fuc(a1-2)[GalNAc(a1-3)]Gal(b1-4)[Fuc(a1-3)]GlcNAc
How it was run: as §1

[41] = target: Fuc(a1-2)[GalNAc(a1-4)]Gal(b1-4)GlcNAc
How it was run: as §1

[42] = target: Fuc(a1-2)[GalNAc(b1-3)]Gal
How it was run: as §1

Fuc(a1-3)GlcNAc = target: Fuc(a1-3)GlcNAc
How it was run: as §1

[43] = target: Fuc(a1-3)[Gal(b1-4)]Glc6S
How it was run: as §1

[44] = target: Fuc(a1-3)[Gal(b1-4)]GlcNAc
How it was run: as §1

[45] = target: Fuc(a1-3)[Gal(b1-4)]GlcNAc(b1-2)Man(a1-3)[Fuc(a1-3)[Gal(b1-4)]GlcNAc(b1-2)Man(a1-6)]Man(b1-4)GlcNAc(b1-4)GlcNAc
How it was run: as §1

[46] = target: Fuc(a1-3)[Gal(b1-4)]GlcNAc(b1-3)Gal(b1-3)[Fuc(a1-4)]GlcNAc
How it was run: as §1

[47] = target: Fuc(a1-3)[Gal(b1-4)]GlcNAc(b1-3)GalNAc
How it was run: as §1

[48] = target: Fuc(a1-3)[Gal(b1-4)]GlcNAc(b1-4)Gal(b1-4)[Fuc(a1-3)]GlcNAc
How it was run: as §1

[49] = target: Fuc(a1-3)[Gal(b1-4)]GlcNAc(b1-4)Gal(b1-4)[Fuc(a1-3)]GlcNAc(b1-4)Gal(b1-4)[Fuc(a1-3)]GlcNAc
How it was run: as §1

[50] = target: Fuc(a1-3)[Gal(b1-4)]GlcNAc(b1-6)[Gal(b1-3)GlcNAc(b1-3)]Gal(b1-4)Glc
How it was run: as §1

[51] = target: Fuc(a1-3)[Gal(b1-4)]GlcNAc6S
How it was run: as §1

B1: Gal 1 (Canis lupus) (protein)
chain: MACGLVASNLSLKPGQCLRVQCEVVPEAKSFVLNLGKDGDNLCLHFNPRFEAHGDVNTIVCNSKDGGAWGEELRESAFPFQPGTVTEVCISFDQADLTIKLPDGYTFKFPNRLNLEAISYLAADGDMKIKCLAFD
glycan array binding signal (z-score) (Fuc(a1-2)Gal): -0.336
glycan array binding signal (z-score) (Fuc(a1-2)Gal(b1-3)GalNAc): -0.289
glycan array binding signal (z-score) [1]: -0.341
glycan array binding signal (z-score) [2]: -0.334
glycan array binding signal (z-score) [3]: -0.33
glycan array binding signal (z-score) [4]: -0.321
glycan array binding signal (z-score) [5]: -0.331
glycan array binding signal (z-score) (Fuc(a1-2)Gal(b1-3)GlcNAc): -0.117
glycan array binding signal (z-score) [6]: -0.104
glycan array binding signal (z-score) [7]: 0.211
glycan array binding signal (z-score) [8]: 0.066
glycan array binding signal (z-score) [9]: -0.306
glycan array binding signal (z-score) [10]: -0.319
glycan array binding signal (z-score) [11]: -0.095
glycan array binding signal (z-score) [12]: 0.48
glycan array binding signal (z-score) (Fuc(a1-2)Gal(b1-4)Glc): -0.338
glycan array binding signal (z-score) (Fuc(a1-2)Gal(b1-4)Glc6S): -0.119
glycan array binding signal (z-score) (Fuc(a1-2)Gal(b1-4)GlcNAc): -0.18
glycan array binding signal (z-score) [13]: 0.929
glycan array binding signal (z-score) [14]: 0.136
glycan array binding signal (z-score) [15]: 0.432
glycan array binding signal (z-score) [16]: -0.311
glycan array binding signal (z-score) [17]: -0.067
glycan array binding signal (z-score) [18]: -0.307
glycan array binding signal (z-score) [19]: -0.316
glycan array binding signal (z-score) [20]: -0.335
glycan array binding signal (z-score) [21]: -0.325
glycan array binding signal (z-score) (Fuc(a1-2)Gal6S(b1-4)Glc): -0.234
glycan array binding signal (z-score) [22]: -0.312
glycan array binding signal (z-score) [23]: -0.254
glycan array binding signal (z-score) (Fuc(a1-2)[Gal(a1-3)]Gal): -0.319
glycan array binding signal (z-score) [24]: -0.288
glycan array binding signal (z-score) [25]: -0.316
glycan array binding signal (z-score) [26]: -0.34
glycan array binding signal (z-score) [27]: -0.318
glycan array binding signal (z-score) [28]: -0.07
glycan array binding signal (z-score) [29]: -0.293
glycan array binding signal (z-score) [30]: -0.314
glycan array binding signal (z-score) [31]: -0.288
glycan array binding signal (z-score) [32]: -0.317
glycan array binding signal (z-score) [33]: -0.322
glycan array binding signal (z-score) [34]: -0.326
glycan array binding signal (z-score) [35]: -0.312
glycan array binding signal (z-score) [36]: -0.321
glycan array binding signal (z-score) [37]: -0.132
glycan array binding signal (z-score) [38]: -0.197
glycan array binding signal (z-score) [39]: -0.094
glycan array binding signal (z-score) [40]: -0.324
glycan array binding signal (z-score) [41]: -0.331
glycan array binding signal (z-score) [42]: -0.339
glycan array binding signal (z-score) (Fuc(a1-3)GlcNAc): -0.341
glycan array binding signal (z-score) [43]: -0.326
glycan array binding signal (z-score) [44]: -0.327
glycan array binding signal (z-score) [45]: -0.335
glycan array binding signal (z-score) [46]: -0.342
glycan array binding signal (z-score) [47]: -0.326
glycan array binding signal (z-score) [48]: -0.323
glycan array binding signal (z-score) [49]: -0.308
glycan array binding signal (z-score) [50]: 0.136
glycan array binding signal (z-score) [51]: -0.283
